Measured values: PubChem BioAssay AID493208 (National Center for Advancing Translational Sciences (NCATS), 2011)
The whole screen tested about 44,000 compounds, of which about 340 (0.77%) were called active. Inconclusive results (about 5%) are left out. The call rests on the fitted dose curve; in most records, active means well fitted inhibition curve with a large enough effect; inconclusive means small, poorly fitted or top-dose-only effect; inactive means flat fitted curve, though single readings scatter. Some of the results follow.

Test: Acumen qHTS Assay for Inhibitors of the mTORC1 Signaling Pathway in MEF (Tsc2-/-, p53-/-) Cells: Sytravon;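 further: plate controls were DMSO for no effect and rapamycin for full effect; nearly all actives have a fitted effect of over 50% in size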
Conditions: phospho-rpS6 immunofluorescence/PI, 24 h; series mostly up to 38.3 µM; activity change, negative = inhibition: at the top concentration
Outline: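 Plate MEFs (Tsc2-/-, p53-/-, empty vector) in DMEM/10% FBS; after 24 h add compound, incubate 24 h at 37 degree Celsius; fix in PFA/TX-100, block, stain phospho-rpS6 and 10 uM PI; scan at 488 nm; report % positive cells.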

Activity change, negative = inhibition, inactive:
COc1ccc(CNC(=O)c2ccc(NC(=O)N3CCSc4ncccc43)cc2)cc1OC 1.8%
COc1ccc(-c2oc3ncn4nc(COc5ccc(C)cc5)nc4c3c2-c2ccc(OC)cc2)cc1 8.25%
O=C(NCCc1csc2nc(-c3ccccc3F)nn12)c1ccccc1C(F)(F)F 6.56%
COc1cccc(CN(C(=O)c2ccc(C(C)(C)C)cc2)C2CCS(=O)(=O)C2)c1 (stereo not given) 2.78%
CCOC(=O)Cn1c(=O)oc2cc(S(=O)(=O)N3CCN(c4ccccc4OC)CC3)ccc21 -9.49%
CCCOc1ccc(C(=O)Nc2ccc3nn(-c4ccc(OC)c(Cl)c4)nc3c2)cc1 -0.0888%
Cc1ccccc1NC(=O)c1c(C)oc2ccc(O)c(CN3CCC(C)CC3)c12 -0.817%
CCOc1ccc(-c2nnc(SCC(=O)Nc3cc(F)ccc3F)o2)cc1 -7.42%
COc1cccc2c1Oc1nc(-c3ccccc3)nc(SCC(=O)Nc3ccccc3)c1C2 -0.357%
COc1ccc(NC(=O)c2cnn(-c3ccc(F)cc3F)c2C2CCN(C(=O)OC(C)(C)C)CC2)cc1Cl -3.93%
COc1ccc(CCNC(=O)c2ccc3nc(Cc4ccccc4)oc3c2)cc1OC 0.983%
Nc1nonc1-c1nc2ccccc2n1Cc1c(Cl)cccc1Cl 2.34%
COc1ccc(N(CC(=O)NCCc2ccccc2)S(=O)(=O)c2ccc(OC)c(OC)c2)cc1 5.94%
Cc1ccc(NC(=O)/C(C#N)=C/c2cc(C)n(-c3ccc(Br)cc3)c2C)cc1C 3.24%
CCOc1ccccc1NC(=O)n1ncc2cc(Cl)ccc21 0.626%
Cc1ccc(CCNC(=O)c2ccc(CS(=O)(=O)c3ccc(Cl)cc3)o2)cc1 0.123%
COCCNC(=O)CCCN1C(=O)CCn2nc(-c3cccn3C)cc21 -3.12%
COc1ccc(CCn2c(=O)[nH]c3cc(C(=O)N4CCN(c5ccccc5)CC4)ccc3c2=O)cc1OC 6.23%
Cc1cc(O)c(C(c2ccc(Cl)cc2)N2CCN(c3ccccc3)CC2)c(=O)n1Cc1ccco1 (stereo not given) -22.4%
CCN1C(=O)C2(c3ccccc31)c1c(oc3ccc(C)cc3c1=O)C(=O)N2CCCOC(C)C (stereo not given) 3.82%
CC1=C(c2ccc(C)cc2)S(=O)(=O)N(Cc2ccc(C(=O)Nc3ccccc3C)cc2)C1=O -2.9%
COc1ccc(NC(=O)Cn2c(=O)oc3cc(S(=O)(=O)N4CCCCC4C)ccc32)cc1 (stereo not given) -10.8%
Cc1oc(-c2ccc(C(=O)NC(C)c3ccccc3)cc2)nc1CS(=O)(=O)c1ccccc1 (stereo not given) 0%
O=C(c1ccccc1F)N1CCC(c2nc3c(nnn3Cc3cccc(F)c3)c(=O)[nH]2)CC1 1.18%
COC(=O)c1ccccc1NC(=O)CCCN1C(=O)C(c2ccccc2)Oc2cccnc21 (stereo not given) 0.687%
CC(=O)Nc1ccc(NS(=O)(=O)c2cc(Br)cc3c2N(C(=O)C2CC2)CC3)cc1 -11%
COc1cc(OC)c(NC(=O)c2cc(C(C)=O)n3ccccc23)cc1Cl 8.93%
COc1ccc(OCC(=O)N(Cc2cccc(OC)c2)C2CCS(=O)(=O)C2)cc1 (stereo not given) -9.03%
Cc1ccc(Nc2ncnc3c2cnn3-c2ccc(C)cc2)cc1 -0.805%
COc1ccc(C)cc1NS(=O)(=O)c1c(C)nc2sc(C)cn2c1=O -6.59%
CCOc1ccccc1NC(=O)CSc1ccc2nnc(CCNS(=O)(=O)c3ccccc3)n2n1 -3.73%
Brc1ccc(-c2noc(-c3ccccc3)n2)o1 -9.89%
COCCNC(=O)CCCn1c(=O)[nH]c2ccsc2c1=O -5.04%
Cc1ccc(Cl)cc1N(C)C(=O)c1noc2c1CCCCC2 4.64%
COc1ccc(NC(=O)c2sc3nc(C)c(C(=O)Nc4ccc(C)cc4C)c(-c4ccccc4Cl)c3c2N)cc1 1.9%
Cc1nn(Cc2noc(C(=O)NCc3cccc(F)c3)n2)c(C)c1Br 3.2%
COc1ccc(-n2cc(C(=O)N(C)c3cc(C)ccc3OC)c3ccccc3c2=O)cc1 -4.68%
CSCCC(NS(=O)(=O)c1ccc2c(c1)oc(=O)n2C)C(=O)NCc1ccc(F)cc1 (stereo not given) -0.402%
COc1ccccc1NC(=O)C1=C(C)Nc2nc(SCC(=O)c3ccc(C)cc3)nn2C1c1ccccc1C (stereo not given) -0.602%
CCOc1ccc(NS(=O)(=O)c2ccc3[nH]cc(C(=O)NCCOC)c(=O)c3c2)cc1 -4.89%
CN(C)CCNC(=O)CCCn1c(=O)c2cccn2c2ccccc21 4.18%
CC1=C(C(=O)Nc2cccnc2)C(c2ccccc2)n2nc(SCc3ccccc3)nc2N1 (stereo not given) -0.593%
Cc1ccc(C)c(NC(=O)CN2C(=O)C3(SCC(=O)N3c3ccc(C)c(C)c3)c3ccccc32)c1 (stereo not given) -1.29%
O=C(Cn1nc(-c2ccccc2)c2cnc3ccccc3c21)Nc1ccccc1 -1.1%
CCC(=O)N1CCc2cc(CNS(=O)(=O)c3c(C)cc(C)cc3C)ccc21 0%
Cc1ccc(Cn2nnc3sc4c(c3c2=O)CCC(C)C4)cc1 (stereo not given) -0.0882%
CC1CCc2nc3ncn(Cc4ccc(Cl)cc4)c(=O)c3cc2C1 (stereo not given) -0.178%
Cc1ccc2nc(-c3ccc(Cl)c(NC(=O)c4ccc5c(c4)OCCO5)c3)oc2c1 -0.557%
Cc1nnc(NCc2ccc(Cl)cc2)c2c1nnn2Cc1ccc(F)cc1 -1.95%
CCCCOc1ccc(C(=O)Nc2ccc(S(=O)(=O)Nc3nc(C)cc(C)n3)cc2)cc1 14.1%
COC(=O)c1ccccc1NC(=O)c1cc(-c2ccc(Cl)cc2)on1 7.02%
Cc1nc2ccccc2n1CCc1nc2c3ccccc3nc(SCC(=O)Nc3cccc(C(F)(F)F)c3)n2n1 -2.21%
CCc1ccc2ncc(S(=O)(=O)c3ccc(Cl)cc3)c(N3CCN(CC)CC3)c2c1 -5.11%
Cc1cc(C)nc(NS(=O)(=O)c2ccc(NC(=O)c3ccccc3O)cc2)n1 0.532%
CCCCOc1ccc(C(=O)N2CC(=O)Nc3ccc(Br)cc3C2c2ccc(F)cc2)cc1 (stereo not given) -28.2%
COc1ccc(Br)cc1Cn1nnc(C(=O)Nc2ccc(C)cc2C)c1N -18.8%
COc1ccc2c(Sc3ccccc3)c(C(=O)NCC(C)c3ccccc3)[nH]c2c1 (stereo not given) -0.126%
Cc1cc(C)cc(-n2c(SCC(=O)N3CCCC3)nc3c([nH]c4ccccc43)c2=O)c1 0.576%
Cn1c(=O)n(-c2ccc3c(c2)OCO3)c2nc(-c3ccc(Cl)cc3)nc(C(N)=O)c21 -2.37%
O=C(CCC1N=C2c3ccccc3N=C(SCc3ccccc3Cl)N2C1=O)NCCc1ccccc1 (stereo not given) 0%
Cc1ccccc1NC(=O)CSc1nc(-c2ccc(F)cc2)nc2c1Cc1ccccc1O2 -10.2%
COc1ccc(NC(=O)C2CCN(S(=O)(=O)c3ccc4[nH]c(=O)ccc4c3)CC2)cc1Cl 0.209%
COc1cc(OC)c(NC(=O)C(c2ccccc2)N2Cc3ccccc3C2=O)cc1Cl (stereo not given) 2.88%
CCS(=O)(=O)N1CC(=O)N(c2ccc(Cl)cc2C)C(C)(C(=O)NC2CCCCCC2)C1 (stereo not given) -6.24%
CCc1nnc(SCc2cccc(F)c2)c2cc3sc(C)cc3n12 -8.39%
CCOc1ccc(N2CC(c3nc4ccccc4n3CCCOc3ccccc3OC)CC2=O)cc1 (stereo not given) -4.18%
CC(C)CN(CCCNC(=O)c1cc(-c2ccc(Br)s2)nc2ccccc12)CC(C)C -2.74%
CCOC(=O)c1scc(-c2ccccc2)c1S(=O)(=O)Nc1ccc(N(C)C)cc1 -7.59%
COc1ccc(CCNC(=O)C2(c3cccs3)CCOCC2)cc1 -9.13%
O=C(Nc1nonc1-c1ccc(Cl)cc1)c1ccccc1F -1.18%
COc1ccc(N2CC(NC(=O)/C=C\c3ccc4c(c3)OCO4)CC2=O)cc1 (stereo not given) -3.17%
Cc1nnc(SCc2cc(=O)n3cccc(C)c3n2)s1 8.53%
Cc1nn2c(C)c(C(=O)N3CCN(c4ccccc4F)CC3)cnc2c1-c1ccc(F)cc1 -13.3%
COCCCNC(=O)c1ccc(Cn2c(=O)c3ccccc3n(CC(=O)Nc3c(C)cccc3C)c2=O)cc1 -6.73%
CCCCCCNc1nc2c(c(=O)n(C)c(=O)n2C)n1Cc1cccc(C)c1 0.0694%
CCOc1cc(C(=O)Nc2ccc3nc(Nc4cccc(Cl)c4)cc(C)c3c2)cc(OCC)c1OCC -6.52%
Cc1cccc(CCNC(=O)C2CCC(CNS(=O)(=O)c3ccccc3)CC2)c1 (stereo not given) -0.986%
COc1cccc(-c2nc(CS(=O)(=O)CC(=O)NCCc3ccc(OC)cc3OC)c(C)o2)c1 -5.11%
CCCC(CCC)C(=O)Nc1cccc(-c2nc3cccnc3s2)c1C -17.1%
O=C(Nc1ccc(F)c(Cl)c1)C1CCN(C(=O)c2ccc(F)cc2)CC1 -16.4%
O=C(NCc1ccccc1Cl)C1CCN(S(=O)(=O)Cc2ccccc2)CC1 -9.96%
CCOC(=O)c1ccc(NC(=O)c2cnn(-c3ccc(C)cc3C)c2C2CCN(C(=O)OC(C)(C)C)CC2)cc1 -14.5%
COc1ccc(Cl)cc1NC(=O)CSC1=Nc2ccccc2C2=NC(CCC(=O)NCc3ccc(F)cc3)C(=O)N12 (stereo not given) 2.4%
Cc1nc2ccn(Cc3ccco3)c(=O)c2cc1C(=O)NCc1ccccc1F 2.98%
CCSc1ncc(Cl)c(C(=O)Nc2nnc(CC)s2)n1 3.43%
O=C(c1ccccc1F)N1c2ncnn2C2(CCCCC2)[C@@H]2CCCC[C@@H]21 0%
Cc1cccc(Nc2nc(N)nc(N)c2S(=O)(=O)c2ccccc2)c1 7.83%
Cc1cccc(NC(=O)CSc2ncc(-c3ccccc3)[nH]2)c1C 5.6%
COc1ccc(C2=C(C)C(N3CCC(C(=O)Nc4ccccc4F)CC3)=NS2(=O)=O)cc1 0.402%
Cc1c(C)n(Cc2ccc(F)cc2)c2ccc(C(=O)N3CCN(c4ccc(F)cc4)CC3)cc12 0%
CCC(C(=O)NCCc1ccccc1)n1nc(C)c2sc3ccccc3c2c1=O (stereo not given) 2.43%
O=C(C1CCN(c2ncnc3c2nc2n3CCCCC2)CC1)N1CCN(c2ccccc2F)CC1 2.95%
CCOc1ccc2oc(=O)cc(CN3CCN(C(=O)c4ccc(OC)c(OC)c4)CC3)c2c1 -4.69%
COc1ccc(CNC(=O)c2cc3c(=O)n(Cc4cccnc4)ccc3nc2C)cc1 -11.2%
COc1ccccc1CNC(=O)c1cc2c(=O)oc3ccc(C)cc3c2s1 -6.12%
